Experimental data taken from PubChem BioAssay AID1240 (Sanford-Burnham Center for Chemical Genomics, 2008).
Out of some 50,000 compounds screened, about 800 (1.6%) showed an effect of 50% or more. This is one part of the list.

What follows are compounds tested against Bcl-2-like protein 10 (Homo sapiens) (UniProt Q9HD36) (assay: TR3 peptide-Bcl-B binding displacers, biochemical primary FP assay, phenotype converters (AID 1240;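 further: 0% = Bcl-B with tracer peptide and DMSO and 100% = tracer peptide lacking Bcl-B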)). Settings: GST-Bcl-B / FITC-TR3 peptide fluorescence polarization; stronger effect = higher value; compound at 3.75 mg/L.
Chain of UniProt Q9HD36 (Q9HD36 whole entry, looked up): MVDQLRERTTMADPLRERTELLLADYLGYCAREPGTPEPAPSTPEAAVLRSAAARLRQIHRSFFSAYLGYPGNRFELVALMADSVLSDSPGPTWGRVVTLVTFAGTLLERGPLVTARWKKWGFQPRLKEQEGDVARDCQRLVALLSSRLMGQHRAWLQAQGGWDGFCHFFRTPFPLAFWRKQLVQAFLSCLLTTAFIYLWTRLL

SMILES | displacement
O=C(O)CCN1C(=O)c2ccc(S(=O)(=O)c3ccc(C(=O)O)cc3)cc2C1=O | 5%
CCN=C(NCC)SC1CC(=O)N(C)C1=O (stereo not given) | -4.2%
O=S(=O)(c1ccc2c(c1)Cc1cc(S(=O)(=O)N(CCO)CCO)ccc1-2)N(CCO)CCO | 9.2%
O=c1cc(C(F)F)oc2c1ccc1ccccc12 | -5.4%
c1csc(-c2nc3sc(-c4cccs4)nc3s2)c1 | 3%
COC(=O)CN(c1ccc(Cl)cc1Cl)S(=O)(=O)c1ccccc1 | 3.2%
COc1ccc(C(=O)SC2=NCCS2)cc1 | -6.9%
CCCCOc1ccc2nsnc2c1Cl | -3.1%
CCc1ccc(/C=C2\SC(=S)N(CC(=O)N3CCOCC3)C2=O)cc1 | -7.1%
CCN(CC)C(=O)c1c(F)cccc1F | -3.4%
CC(=O)NC1=NC(=O)/C(=C\c2sccc2C)S1 | 98.2%
CC(C)CC(=O)NC(NC(=S)Nc1sc2c(c1C#N)CCCC2)C(Cl)(Cl)Cl (stereo not given) | 5.5%
CC(C)(C)c1cc(N2C(=O)C(=O)/C(=C(\O)c3ccccc3)C2c2ccc(Cl)cc2)no1 (stereo not given) | -13.1%
COc1cc(/C=N/Nc2nn[nH]n2)cc2c1OCO2 | 12.7%
Cc1cc(/C=C2\SC(=O)NC2=O)c(C)n1C1CCCCC1 | 8.2%
CC(C)(C)c1ccc(C(=O)NNC(=O)c2ccc([N+](=O)[O-])cc2Cl)cc1 | -12%
Cc1cc(-n2cccn2)nc(-c2ccc(Br)cc2)n1 | -7.1%
CCCCOc1ccc(-c2cnc(S(C)(=O)=O)nc2)cc1 | 2.2%
O=C(N/C(=C\c1cccnc1)C(=O)N1CCOCC1)c1cccc(Br)c1 | -5.9%
O=C(c1cccc(Cl)c1)N1CCN(c2ccc([N+](=O)[O-])cc2Cl)CC1 | -1%
Nc1sc2c(c1C(=O)Nc1ccc(Cl)cc1)CCCC2 | 9.6%
O=C(NC(=S)N1CCCCCC1)c1ccc(Br)cc1 | 3.1%

SMILES | displacement
Cc1cc(C)cc(NC(=O)Cn2c(C)c(C=O)c3ccccc32)c1 | -40.5%
CNC(=O)c1c(NC(=O)c2cccs2)sc2c1CCCC2 | 7.3%
CCCCCCCCc1nnc(NC(=O)CC)s1 | -2.8%
Cc1cc(C(F)(F)F)nn1CC(=O)Nc1ccccc1C(F)(F)F | 0.2%
O=C(c1cc2ccccc2oc1=O)N1CCN(c2ccc([N+](=O)[O-])cc2)CC1 | -3.9%
CCOc1ccc(N(CC(=O)NCCc2ccc(OC)c(OC)c2)S(=O)(=O)c2ccc(Br)cc2)cc1 | 5.3%
Clc1ccc(-c2nnc(-c3ccc4c(c3)OCO4)o2)c(Cl)c1 | 12.6%
O=C(Nc1nc2ccc3ccccc3c2s1)c1cccc(Br)c1 | 4.3%
O=C(NCCC1=CCCCC1)c1cc2ccccc2oc1=O | -4.9%
N#Cc1c(N)c(C(=O)c2ccccc2)n2c1CCCC2 | 12.7%
CCCC(=O)Nc1cccc(-c2nc3cc(C)ccc3o2)c1 | -8%
Cc1cc([N+](=O)[O-])ccc1-c1cc2ccccc2oc1=O | 9.6%
O=C(COc1ccccc1)Nc1ccccc1C(=O)Nc1ccc(C(=O)O)cc1 | 12.9%
COC(=O)c1c(C)oc2ccc(NS(=O)(=O)c3ccc(F)cc3)cc12 | 11.6%
COc1ccccc1CNC(=O)C1CC(=O)N(c2ccc(F)cc2)C1 (stereo not given) | 7.3%
CCOc1ccc(N2C(=O)NC(=O)/C(=C\c3ccc(N(CC)CC)cc3OC)C2=O)cc1 | 55.1%
O=C1C(=O)N(Cc2cccnc2)C(c2ccccc2Cl)/C1=C(\O)c1ccccc1 (stereo not given) | -14%
CC(C(=O)NN)C1=NC(C)(C)Cc2ccccc21 (stereo not given) | -17.7%
COc1cc(NC(=O)c2cc([N+](=O)[O-])ccc2N2CCN(C)CC2)c2ncccc2c1 | 5.1%
Cc1cc(C)cc(N(CC(=O)NCc2ccco2)S(=O)(=O)c2ccccc2)c1 | 1.4%
O=C(c1cccs1)N1CCN(Cc2ccc(Br)cc2)CC1 | -11.8%
O=c1c(-c2cccs2)[n+]([O-])c2ccccc2n1O | 69.4%

SMILES | displacement
COc1cc(/C=C/c2nc3ccccc3c(=O)[nH]2)ccc1O | 1.2%
C=CCn1c(SCC(=O)NCCCN2CCOCC2)nc2sc(C)c(C)c2c1=O | -0.6%
COc1cccc(CN2CCN(Cc3cc(OC)ccc3OC)CC2)c1 | -9%
N#CC1=C(N)Oc2n[nH]c(-c3ccccc3)c2C1C1CCCCC1 (stereo not given) | -7.2%
CC(=O)C1=C(Nc2ccccc2)CC(C)(O)C(C(C)=O)C1c1ccc(F)cc1 (stereo not given) | 0.6%
C/C(=N\N=C1\NC(=O)C(CC(=O)Nc2ccccc2C(F)(F)F)S1)c1ccc([N+](=O)[O-])cc1 (stereo not given) | 4.2%
CC(NC(=O)c1ccccc1)C(=O)OCC(=O)Nc1ccc(S(N)(=O)=O)cc1 (stereo not given) | -4.7%
Cc1ccc(C(C)C)c(OCC(=O)Nc2cc(-c3nc4ccccc4o3)ccc2C)c1 | -1.3%
COc1ccc(NC(=O)CN(CCc2ccccc2)S(=O)(=O)c2ccccc2)c(OC)c1 | 2.5%
CC(C)OC(=O)C1C(=O)CC(C)(O)C(C(=O)OC(C)C)C1c1cccc(F)c1 (stereo not given) | -0.6%
CCCC(=O)N1CCN(Cc2ccccc2)CC1 | -2.6%
O=C(COc1ccccc1Cl)Nc1ccc2oc(-c3ccncc3)nc2c1 | 136%
CCOC(=O)C(=CNc1ccccc1C(C)C)C(=O)OCC | -7.2%
Cn1c(COc2cccc3ccccc23)nc2ccccc21 | -9.7%
CCOC(=O)c1sc(NC(=O)c2cncc(Br)c2)nc1C | 24.1%
COc1cc(C(=O)Nc2ncc(Cc3cccc(Cl)c3)s2)cc(OC)c1OC | 10.7%
Cc1ccc(OCc2nnc(NC(=O)C3CCCCC3)s2)cc1 | 8.7%
O=C(CCN1C(=O)/C(=C/c2ccccc2)SC1=S)NNC(=O)c1ccccc1Br | 1.4%
Cc1cc(CN2CCOCC2)c(O)c(C)n1 | 7.9%
Cc1oc2ccccc2c1/C=N/n1cnc2sc3c(c2c1=O)CCCC3 | 9.1%
CCOc1ccc2nc(SCC(=O)C(C)(C)C)[nH]c2c1 | 0.7%
O=C1CC(c2cccc([N+](=O)[O-])c2)Sc2nc3ccccc3n21 (stereo not given) | 10.8%

SMILES | displacement
O=C(Cn1c(=O)n(CC(=O)NCc2ccccc2)c2ccccc21)NCc1ccccc1 | 12.7%
CN(C)c1ccc(/C=C2\NC(=O)c3ccccc3C2=O)cc1 | 5.2%
Cc1cccc(-c2noc(COc3ccc(Cl)cc3)n2)c1 | 6%
COc1cc(C(=O)Nc2ccccc2)c2ccccc2n1 | -0.3%
CCc1ccc(NC2=C(Cl)C(=O)N(c3ccccc3Cl)C2=O)cc1 | -1.9%
CCOc1cc(C(=O)NCCN2CCOCC2)cc(OCC)c1OCC | 1.7%
CCc1ccc(-n2c(C)cc(/C=N/NC(N)=O)c2C)cc1 | 6.6%
Cc1ccnc(NS(=O)(=O)c2ccc(N3C(=O)c4c(Cl)c(Cl)c(Cl)c(Cl)c4C3=O)cc2)n1 | 16.2%
CC(C)OC(=O)c1c(-c2ccc(Br)cc2)csc1NC(=O)CCC(=O)O | 6.9%
CCCCCCCc1ccc(C(=O)Nc2nccs2)cc1 | -7.1%
O=P(O)(O)CP(=O)(c1ccccc1)c1ccccc1 | 11.6%
O=C(/C=C/c1ccccc1)Nc1nc2ccc(Cl)cc2s1 | -9.2%
Cc1ccc(Cl)cc1N(Cc1ccc(C(=O)N2CCN(c3ccccc3)CC2)cc1)S(=O)(=O)c1ccccc1 | -15.1%
Brc1ccc(-c2cc(-c3ccccc3)nc(N/N=C/c3cccnc3)n2)cc1 | -13.9%
COc1cc(N(C)C)c([N+](=O)[O-])cc1C(=O)N1CCCC(O)C1 (stereo not given) | 20.2%
O=C(Nc1cc(Cl)ccc1C(=O)O)c1ccc(Br)cc1 | -0.2%
O=C(NCCOCc1ccccc1)C(c1ccccc1)c1ccccc1 | -2.7%
CCOC(=O)CCc1nc2ccc(O)cc2[nH]1 | 3.4%
O=C1C2ON(c3ccc(Cl)cc3)C(c3cc(Br)ccc3O)C2C(=O)N1c1ccccc1 (stereo not given) | 9.4%
CCOC(=O)c1ccc(NC(=O)CCCOc2ccc(Cl)cc2Cl)cc1 | -12.3%
O=C1/C(=C\N2CCOCC2)c2ccccc2C(=O)N1c1ccccc1 | 1.6%
Cc1ccc([N+](=O)[O-])cc1-c1ccc(/C=C(\C#N)c2nc3ccccc3[nH]2)o1 | -0.7%

SMILES | displacement
COc1cccc(-c2cc(C(=O)Nc3ncccn3)c3ccccc3n2)c1 | 5.4%
Cc1cc(/C=N/N2C(=O)c3ccccc3C2=O)c(C)n1C | -9.7%
O=C(Cc1ccccc1)N1N=C(c2ccc(F)cc2)CC1(O)C(F)(F)F (stereo not given) | 2.4%
O=C(Cn1c2ccccc2c(=O)c2ccccc21)N/N=C/c1cc([N+](=O)[O-])ccc1N1CCCCC1 | -6.8%
COc1ccc(C2=NOC(O)(C(F)(F)F)C2)cc1 (stereo not given) | -10.2%
Cc1ccc(S(=O)(=O)/N=C2/NC(=O)/C(=C/c3cc([N+](=O)[O-])ccc3Cl)S2)cc1 | 8.7%
O=c1c2ccccc2c2nc3c(c(-c4ccccc4O)c12)c(=O)c1ccccc13 | 4.4%
O=C(COc1ccc(Br)cc1)N1CCN(c2ccccc2)CC1 | 4.1%
CC(C)COc1ccc(C(=O)Nc2cccc([N+](=O)[O-])c2)cc1 | 11.7%
O=C(Nc1cc(C(F)(F)F)ccc1Cl)C(c1ccccc1)c1ccccc1 | 3.5%
CC1=C(C(=O)Nc2ccccc2Cl)C(c2cccc(Cl)c2)NC(=O)N1 (stereo not given) | -4.9%
COC(=O)C(CCSC)NC(=O)c1cccs1 (stereo not given) | -5.1%
CN1CCN(C(=O)c2cnn3c(C(F)(F)F)cc(-c4ccco4)nc23)CC1 | 6.4%
Cc1cc(NC(=O)c2ccc(Cl)c([N+](=O)[O-])c2)ccc1Br | 14.6%
CCN(CC)CCCC(C)NC(=O)c1c(NC(=O)c2ccccc2)sc(C)c1C (stereo not given) | 1.2%
O=C(NCc1cccnc1)c1cc2nc(-c3cccs3)cc(C(F)(F)F)n2n1 | -2.8%
CCc1cc2c(=O)n(-c3ccccc3)c(SCC(=O)c3ccc(OC)cc3)nc2s1 | 4.1%
COc1ccc(C(=O)/C=C/c2sccc2C)cc1OC | -4.7%
Cc1ccc(S(=O)(=O)N2C(=S)SCC2(C)C)cc1 | 7.2%
CCOC(=O)c1ccc(NC(=O)c2ccccc2OCC)cc1 | 4.8%
CCC(=O)Nc1nc(-c2ccc(Cl)c(Cl)c2)cs1 | 4.4%
COc1ccccc1C1Nc2cc3ccccc3cc2C2=C1C(=O)CC(C)(C)C2 (stereo not given) | 9%
